# Some of the results follow.
# Test system: HepG2
# Assay: cytotoxicity call (relative viability < 0.9)
# Conditions: 10 µM
row,Compound,cytotoxicity call
1,C[C@H](CO)N1C[C@H](C)[C@@H](CN(C)C(=O)Nc2cccc3ccccc23)Oc2ccc(NC(=O)C3CCCCC3)cc2C1=O,inactive
2,N[C@@H](CC(=O)O)c1cccc(O)c1,inactive
3,C[C@@H]1CN([C@H](C)CO)S(=O)(=O)c2ccc(/C=C/c3ccccc3)cc2O[C@H]1CN(C)C(=O)CN1CCOCC1,inactive
4,CCCNC(=O)N1C[C@@H](O)COC[C@@H]2O[C@@H](CC(=O)NCc3ccncn3)CC[C@H]21,inactive
5,COCC(=O)N(C)C[C@H]1Oc2cc(C#Cc3cccnc3)ccc2S(=O)(=O)N([C@H](C)CO)C[C@H]1C,inactive
6,C[C@H]1CN([C@@H](C)CO)C(=O)c2cccc(NS(=O)(=O)c3cn(C)cn3)c2O[C@H]1CN(C)CC1CCCCC1,inactive
7,C[C@@H]1CCCCO[C@@H](CN(C)S(=O)(=O)c2ccc(F)cc2)[C@@H](C)CN([C@@H](C)CO)C(=O)c2cc(NS(C)(=O)=O)ccc2O1,inactive
8,C[C@@H]1CCCCO[C@H](CN(C)CC2CC2)[C@H](C)CN([C@H](C)CO)C(=O)c2cc(NC(=O)Nc3ccc(C(F)(F)F)cc3)ccc2O1,active
9,COCC(=O)N1C[C@H](C)[C@H](OC)CN(C)C(=O)c2cc(NC(=O)c3ccc(F)cc3)ccc2OC[C@H]1C,inactive
10,C[C@H](CO)N1C[C@H](C)[C@H](CN(C)Cc2ccc3c(c2)OCO3)Oc2c(NC(=O)C3CC3)cccc2C1=O,inactive
11,Cc1nn(C)cc1NC(=O)C[C@@H]1CC[C@@H]2[C@H](COc3ccc(NC(=O)C4CCOCC4)cc3C(=O)N2C)O1,inactive
12,COC1=C(OC)C(=O)C(CCCCCCCCCC[P+](c2ccccc2)(c2ccccc2)c2ccccc2)=C(C)C1=O,active
13,C[C@@H]1CCCCO[C@H](CN(C)CC2CC2)[C@@H](C)CN([C@H](C)CO)C(=O)c2cc(NC(=O)Nc3ccccc3)ccc2O1,inactive
14,C[C@H](CO)N1C[C@H](C)[C@H](CN(C)S(=O)(=O)c2ccc(F)cc2)Oc2ncc(-c3ccncc3)cc2C1=O,inactive
15,c1ccc2c(c1)Cn1nnnc1-2,inactive
16,C[C@H](CO)N1C[C@H](C)[C@H](CN(C)S(=O)(=O)c2ccccc2)OCCCC[C@H](C)Oc2ccc(NC(=O)Nc3ccccc3)cc2C1=O,inactive
17,C[C@@H]1CN([C@H](C)CO)C(=O)c2cc(NC(=O)Cc3ccccc3)ccc2O[C@H]1CN(C)Cc1ccc(Oc2ccccc2)cc1,active
18,Cn1cnc(S(=O)(=O)N[C@H]2C=C[C@@H](CC(=O)N3CCN(c4ccccc4)CC3)O[C@@H]2CO)c1,inactive
19,C[C@H]1CN([C@@H](C)CO)C(=O)c2cc(C#Cc3ccccc3)cnc2O[C@@H]1CN(C)C(=O)CCN1CCCCC1,active
20,CC(C)NC(=O)Nc1cccc2c1O[C@@H](CN(C)C(=O)NC1CCCCC1)[C@@H](C)CN([C@H](C)CO)C2=O,inactive
21,C[C@@H]1CCCCO[C@@H](CN(C)C(=O)Nc2cccc3ccccc23)[C@H](C)CN([C@H](C)CO)C(=O)c2cc(NS(=O)(=O)c3ccc(Cl)cc3)ccc2O1,active
22,CCS(=O)(=O)Nc1ccc2c(c1)C(=O)N(C)C[C@H](OC)[C@@H](C)CN(CCC(F)(F)F)[C@@H](C)CO2,inactive
23,C[C@H]1CN([C@@H](C)CO)C(=O)Cc2cc(NC(=O)Nc3ccc(C(F)(F)F)cc3)ccc2O[C@@H]1CN(C)Cc1ccc(C(=O)O)cc1,inactive
24,C[C@H]1CCCCO[C@H](CN(C)CC2CCCCC2)[C@@H](C)CN([C@@H](C)CO)C(=O)c2cc(NC(=O)Nc3ccc4c(c3)OCO4)ccc2O1,active
25,Nc1ccc(C(=O)N(CCO)CCO)cc1,inactive
26,Cc1ccc(S[C@]2(C(=O)O)CC(=O)N(Cc3cc(C(F)(F)F)cc(C(F)(F)F)c3)[C@@H]2c2ccc(CO)cc2I)cc1,inactive
27,C[C@@H]1CN([C@@H](C)CO)C(=O)c2cccc(NC(=O)c3ccc(-c4nccs4)cc3)c2O[C@H]1CN(C)Cc1ccc2c(c1)OCO2,inactive
28,COc1ccc(S(=O)(=O)N2C[C@@H](O)COC[C@@H]3O[C@@H](CC(=O)NCCCN(C)C)CC[C@H]32)cc1,inactive
29,C[C@@H](O)C#Cc1cnc2c(c1)C(=O)N([C@@H](C)CO)C[C@H](C)[C@H](CN(C)C(=O)CN1CCOCC1)O2,inactive
30,O=C(CS)NCCCCCCNC(=O)[C@@H]1C[C@@H]2C(=O)N[C@@H](Cc3ccccc3)C(=O)N2[C@@H]1c1cccc(OCCO)c1,inactive
